Test results published in the supplement of paper PMC7826260.
The other results are listed elsewhere or left out. Viral Rep nickase domains cut single-stranded DNA in vitro at 3 µM enzyme and 37 °C for 1 h; the strands have 90 letters, of which the middle is given. Numbers give uncut DNA relative to the enzyme-free pool, as log2; strong cutting gives strongly negative numbers. There is no active / inactive call. Shares of all reads are compared; values above 0 arise when much of the pool is cut.

What follows are sequences tested on T1, Rep nickase domain of tomato golden mosaic virus (assay: uncleaved DNA left, log2 of reads against the no-enzyme library (log2 ratio); higher = less cleavage (more negative = more Rep cleavage of the k-mer); sequences stand for … in CTCGTCCG…ACCGGAGA).
T1 sequence (residues 1-124 of Rep, tag left off): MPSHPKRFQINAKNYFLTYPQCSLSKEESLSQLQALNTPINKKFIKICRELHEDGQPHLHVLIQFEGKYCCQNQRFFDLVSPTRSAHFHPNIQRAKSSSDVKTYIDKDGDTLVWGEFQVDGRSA
Description: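 A pool of 90-nt single-stranded DNAs with seven random bases just before the constant AC of the nick site (name = the seven bases) was cut by 3 µM recombinant His6-SUMO-tagged Rep nickase domain (300 nM DNA, 50 mM HEPES pH 8.0, 50 mM NaCl, 1 mM MnCl2, 1 h, 37 °C, three replicates). Uncut DNA was amplified and sequenced.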

| Sequence | uncleaved DNA left (log2) |
| --- | --- |
| CACGCGT | -0.0411 |
| AGAGAAA | 0.0179 |
| TTTCTAA | 0.0287 |
| GTGATTA | 0.158 |
| AGGAAAC | -0.0857 |
| GAGGTAT | -0.00946 |
| AACCTAT | 0.0264 |
| ATATCCT | -0.064 |
| ATCCCAG | 0.157 |
| GATTGTG | 0.0463 |
| ACGGCAC | 0.0249 |
| ATACAAT | 0.0137 |
| GACTGTT | -0.0443 |
| GAGTGCT | -0.0754 |
| TCTGGAT | 0.189 |
| CTATCCC | -0.186 |
| GTTACTG | -0.0397 |
| CAGAGAC | 0.0402 |
| CCGACAA | 0.023 |
| AGAAATG | 0.066 |

| Sequence | uncleaved DNA left (log2) |
| --- | --- |
| GCACTTA | -0.0921 |
| GCTAAGG | 0.211 |
| TCTGAAT | 0.176 |
| GCGGCAC | 0.0522 |
| CCGCAAG | 0.0797 |
| ACAGCTG | 0.25 |
| CCGACCG | -0.165 |
| CGCCGGT | 0.0104 |
| GCAGAAT | 0.11 |
| TTCCGTA | 0.0961 |
| GGTTTAT | -0.0176 |
| ATAAGAC | 0.0304 |
| TAGGACT | 0.0591 |
| GGGAGCC | 0.022 |
| ACTATTC | 0.0684 |
| CTCGTCT | 0.148 |
| TTCCAGC | -0.137 |
| GCAGCAA | -0.0548 |
| CCCAGTG | 0.0502 |
| AGCTTAC | 0.0175 |
